From article PMC5540273 (PLoS ONE, 2017) come the findings set out here.

The list shows a part of the results, in another mix than the full data. The list shows a part of the results.

For assay [1], the system named is JAK1(JH1domain-catalytic).
The test system of the next assay is T1, ARK5.
T1 construct: gene NUAK1

Another assay relates to T2, GCN2(Kin.Dom.2,S808G).
T2 construct: gene EIF2AK4

The subject of the next assay is T3, LKB1.
T3 construct: gene STK11

The subject of another assay is T4, IKK-alpha.
T4 construct: gene CHUK

In a further assay the test system is T5, MST2.
T5 construct: gene STK3

Assay [2] deals with JAK3(JH1domain-catalytic).
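Further: kd values determined as follow-up on hits from a single-replicate KINOMEscan panel screen.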

As a reminder, the Kd is the free concentration of one partner at which half of the binding sites on the other are occupied at equilibrium, for simple one-to-one binding. Read a low Kd as higher affinity. As to `Cc1cc(C)cc(Oc2nccc(-c3c(-c4ccc(F)cc4)ncn3C3CCNCC3)n2)c1.O=C(O)C(F)(F)F.O=C(O)C(F)(F)F.O=C(O)C(F)(F)F` [SB-284851], the Kd is 410 nM in the assay on CIT, 160 nM in the assay with CSNK1D, 250 nM in the assay on ERBB2 and > 10 µM in assay [1].
On to `CSc1ccc(NC2=C(c3cccc(Cl)c3)C(=O)NC2=O)cc1` [SB-341528], for which the Kd in the assay on BUB1 was > 10 µM.
`COc1ccc(C2=C(Nc3cccc(Cl)c3)C(=O)NC2=O)cc1` [SB-326892]: the Kd in the assay on ARK5 is > 10 µM; in the assay on CLK1, 390 nM; in the assay on CLK2, 1300 nM; in the assay with GCN2(Kin.Dom.2,S808G), > 10 µM; in the assay with GSK3A, 440 nM; in assay [1], > 10 µM.
Regarding `O=C1NC(=O)C(c2ccccc2Cl)=C1Nc1ccccc1` [SB-376715], the Kd with CSNK1G1, in the assay with GAK and with LKB1 was > 10 µM throughout.
For `O=C1NC(=O)C(c2ccccc2Cl)=C1Nc1cccc(C(=O)O)c1` [SB-390526], the Kd in the assay with ABL1-phosphorylated is > 10 µM; in the assay with CLK2 it was 400 nM; in the assay on HIPK1, 210 nM; in the assay on HIPK2, 140 nM; with HIPK3, 340 nM; in the assay with IKK-alpha it was > 10 µM. Moreover, the Kd with MST2 was > 10 µM.
In assay [2], `O=C1NC(=O)C(c2ccccc2)=C1Nc1cc(Cl)c(O)c(Cl)c1` [SB-390530] gave an equilibrium dissociation constant (Kd) of 380 nM. This counts as sub-micromolar.
